# According to the supplement of paper PMC9446081:
# Out of some 39,000 compounds screened, about 220 (0.56%) showed activity. The list shows a part of the results.
# Tested on: Escherichia coli K-12 BW25113
# Experiment: relative growth (OD600 normalised to plate interquartile mean) (fraction); higher = less growth inhibition, active = 0.2 or less
# Details: 50 µM; LB; incubation time: overnight (16-24 h)
# 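Note: static incubation at 37 °C against the wild-type strain, values averaged over two biological replicates.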
row,SMILES,relative growth
1,CNC(=O)Nc1ccc(C(=O)NC)cc1,inactive: 0.995
2,C[C@H](CO)N1C[C@H](C)[C@H](CN(C)C(=O)Nc2ccc(C(F)(F)F)cc2)OCCCC[C@H](C)Oc2ccc(NS(=O)(=O)c3cccs3)cc2C1=O,inactive: 1.04
3,COc1ccc(CNC(=O)C[C@@H]2CC[C@H]3[C@@H](COc4ccc(NC(=O)C5CC5)cc4C(=O)N3C)O2)cc1,inactive: 1.03
4,COc1ccc(CN(C)C[C@H]2Oc3ccc(NC(=O)Cn4cnnn4)cc3CC(=O)N([C@H](C)CO)C[C@@H]2C)cc1,inactive: 1.01
5,COc1cc(C(=O)N2CCN(CCN3C(=O)c4cccc5cccc(c45)C3=O)CC2)cc(OC)c1OC,inactive: 0.987
6,CN(CC=Cc1ccccc1)Cc1cccc2ccccc12.Cl,inactive: 0.9
7,COc1ccccc1S(=O)(=O)N(C)C[C@@H]1Oc2cc(C#CCC(C)C)ccc2S(=O)(=O)N([C@@H](C)CO)C[C@@H]1C,inactive: 0.995
8,COc1ccc(S(=O)(=O)Nc2cccc3c2O[C@@H](CN(C)Cc2ccncc2)[C@@H](C)CN([C@H](C)CO)C3=O)cc1,inactive: 1.01
9,C[C@@H]1CN([C@H](C)CO)C(=O)c2cc(NC(=O)Nc3ccc(C(F)(F)F)cc3)ccc2O[C@@H](C)CCCCO[C@@H]1CN(C)C(=O)C1CCCCC1,inactive: 1.03
10,O=C(NCCN1CCOCC1)[C@@]1(CCS(=O)(=O)c2ccccc2)N=C(c2ccc(OCCCO)cc2)O[C@H]1c1ccccc1,inactive: 1.01
11,C[C@@H]1CN([C@@H](C)CO)C(=O)c2cc(C#CCC3CCCC3)cnc2O[C@@H]1CN(C)C(=O)c1cnccn1,inactive: 1.05
12,C[C@@H]1CCCCO[C@H](CN(C)C(=O)Nc2ccc(C(F)(F)F)cc2)[C@H](C)CN([C@@H](C)CO)C(=O)c2cc(NC(=O)Nc3ccccc3)ccc2O1,inactive: 1.03
13,O=C(CCCN1CCC(O)(c2ccc(Cl)cc2)CC1)c1ccc(F)cc1,inactive: 1.02
14,C[C@@H]1CN([C@H](C)CO)C(=O)c2cc(NC(=O)Cc3cn(C)c4ccccc34)ccc2O[C@@H]1CN(C)Cc1ccc(C(F)(F)F)cc1,inactive: 1.05
15,COc1ccc([Si](C)(C)[C@H]2[C@H](CC(=O)N(CCO)Cc3ccccc3)O[C@@]3(C(=O)N(C)c4c(Br)cc(C)cc43)[C@@H]2C)cc1,inactive: 1.04
16,C[C@@H]1CN([C@H](C)CO)C(=O)c2cccc(NC(=O)Nc3ccc(F)cc3)c2O[C@@H]1CN(C)Cc1ccc(Cl)c(Cl)c1,inactive: 1.03
17,CCc1nc2ccc(C(=O)N3CCN(S(=O)(=O)CC)CC3)cn2c1N(C=O)Cc1ccc(OC)cc1,inactive: 1.01
18,CCNC(=O)C[C@H]1CC[C@H](NC(=O)C2CC2)[C@@H](CO)O1,inactive: 1
19,CC(C)(C)c1ccc(NC(=O)N[C@H]2CCCc3ccccc32)cc1,inactive: 1.03
20,O=C(O)C1OC(Oc2cc3oc(-c4ccccc4)cc(=O)c3c(O)c2O)C(O)C(O)C1O (centres undefined),inactive: 1.05

row,SMILES,relative growth
1,O=C(NCCN1CCCC1)[C@H]1[C@H](CO)[C@H]2Cn3c(cccc3=O)[C@@H]1N2C(=O)NC1CCCC1,inactive: 0.993
2,C[C@H](CO)N1C[C@H](C)[C@H](CN(C)S(=O)(=O)c2ccccc2)Oc2c(NS(=O)(=O)c3ccc(F)cc3)cccc2C1=O,inactive: 1.02
3,Cc1noc(C)c1S(=O)(=O)N(C)C[C@@H]1OCCCC[C@H](C)Oc2ccc(NC(=O)Nc3ccccc3)cc2C(=O)N([C@@H](C)CO)C[C@H]1C,inactive: 1
4,Cc1noc(C)c1NC(=O)Nc1ccc2c(c1)C(=O)N([C@@H](C)CO)C[C@H](C)[C@H](CN(C)C(=O)NC(C)C)O2,inactive: 1.01
5,C[C@@H]1CCCCO[C@@H](CN(C)Cc2ccc(Cl)c(Cl)c2)[C@@H](C)CN([C@@H](C)CO)C(=O)c2cc(NS(C)(=O)=O)ccc2O1,inactive: 0.983
6,COc1ccc(NC(=O)Nc2ccc3c(c2)C(=O)N([C@H](C)CO)C[C@@H](C)[C@@H](CN(C)Cc2ccncc2)OCCCC[C@H](C)O3)cc1,inactive: 1.02
7,Cc1nc(-c2ccncc2)sc1CN,inactive: 1.01
8,O=C(CCCCCNC(=O)OCc1ccc(CO[C@H]2C[C@@H](c3csc4ccccc34)C=C(C(=O)N3CCN(Cc4ccccc4)CC3)O2)cc1)NO,inactive: 1
9,C[C@@H]1CN([C@H](C)CO)C(=O)c2cc(NC(=O)Nc3ccc(C(F)(F)F)cc3)ccc2O[C@@H](C)CCCCO[C@@H]1CN(C)Cc1ccccc1,inactive: 1.05
10,C[C@@H]1CN([C@H](C)CO)C(=O)Cc2cc(NC(=O)Cc3cn(C)c4ccccc34)ccc2O[C@H]1CN(C)S(C)(=O)=O,inactive: 0.979
11,Cc1ccc(S(=O)(=O)Nc2ccc3c(c2)C(=O)N([C@@H](C)CO)C[C@@H](C)[C@H](CN(C)C(=O)CCC(F)(F)F)OCCCC[C@@H](C)O3)cc1,inactive: 0.97
12,C[C@H](NC(=O)C[C@@H]1CC[C@@H](NC(=O)CN2CCOCC2)[C@H](CO)O1)c1ccccc1,inactive: 1
13,C[C@H](CO)N1C[C@H](C)[C@H](CN(C)Cc2ccc(C(F)(F)F)cc2)OCCCC[C@H](C)Oc2ccc(NS(=O)(=O)c3ccccc3)cc2C1=O,inactive: 1.02
14,O=C(C[C@H]1CC[C@H]2[C@@H](COC[C@@H](O)CN2S(=O)(=O)c2ccccc2F)O1)N1CCC(Cc2ccccc2)CC1,inactive: 1.02
15,CC(C)CC#Cc1ccc2c(c1)O[C@H](CN(C)C(=O)c1cccnc1)[C@H](C)CN([C@@H](C)CO)S2(=O)=O,inactive: 0.973
16,COc1ccc(S(=O)(=O)N(C)C[C@H]2OCCCC[C@@H](C)Oc3ccc(NC(=O)Nc4c(C)noc4C)cc3C(=O)N([C@H](C)CO)C[C@@H]2C)cc1,inactive: 0.918
17,O=C(CN1CCOCC1)NCC[C@H]1CC[C@@H](NC(=O)c2ccccc2F)[C@@H](CO)O1,inactive: 0.978
18,C[C@@H]1CCCCO[C@H](CN(C)CC2CCCCC2)[C@@H](C)CN([C@H](C)CO)C(=O)c2cc(NC(=O)c3ccncc3)ccc2O1,inactive: 0.999
19,CC(C)c1nc2cc3sc(C(C)C)nc3cc2s1,inactive: 1.04
